Screen size: about 110,000 compounds; about 40 (0.04%) were called active. The shares of active, inactive and inconclusive entries below differ from those in the screen. Calls follow the shape of the dose curve; as a rule, active = well fitted curve in the direction sought with a large enough effect in the signal ratio (not every such curve was filed as active); inconclusive = small, poorly fitted or top-dose-only effect, or a change in a side signal; inactive = flat fitted curve, though single readings scatter; the % refers to the signal ratio. Potencies beside an inconclusive call are fits to weak or partial responses and may not hold up.
Experiment: IkB Signaling;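 as to IkBa stabilization activation: 0% = basal untreated cells and 100% = reference inhibitor full response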
Details: ABC-DLBCL IkBa-CBG/CBR dual luciferase ratio (green luciferase fused to IkBa over red control in OCI-Ly3 lymphoma cells), 4 h; IkBa stabilization activation: at 57.1 µM (top of the series), scaled: untreated 0%, proteasome inhibitor 100% unless noted
Summary of the method: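 In this assay, an IκBα–CBG68 fusion accumulates when IKK-driven degradation is blocked; native CBR normalizes for cell number. OCI-Ly3 cells were treated 4 h with compound and doxycycline, then green and red light read after Chroma-Glo addition.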
Potency is read from the fitted curve at half-maximal effect.

SMILES	IkBa stabilization activation	Potency
c1cncc(-c2nn3c(Cn4cnc5ccccc54)nnc3s2)c1	inactive	–
COc1ccc(Nc2ncc(C(=O)Nc3cccc(OC)c3)c3ccccc23)cc1	inconclusive: 4.12% [signal inhibitor]	–
Cc1cccc(OCCCC(=O)Nc2ccc(S(=O)(=O)Nc3onc(C)c3C)cc2)c1	inconclusive: 1.63% [signal inhibitor]	–
Cc1ccc(Cl)cc1N(C)C(=O)c1sc2nc3n(c(=O)c2c1C)CCCC3	inactive	–
O=C(c1cccs1)c1ccc(-c2cccs2)s1	–	inconclusive: 25.1 µM [signal inhibitor, partial curve]
O=C1NC(c2ccco2)Nc2ccccc21 (configuration not stated)	inactive	–
Cc1ccc(NC(=O)NC(C)c2c(-n3cccc3)sc(C)c2C)c(C)c1 (configuration not stated)	inconclusive: -0.561% [signal inhibitor]	–
COc1ccc(NC(=O)c2ccco2)cc1NC(=O)c1cccc(C)c1OC	inactive	–
Cc1ccc(C)c(N2CCN(C(=O)c3ccc(NS(=O)(=O)c4c(C)noc4C)cc3)CC2)c1	inconclusive: 9.88% [signal inhibitor]	–
O=C(Nc1ccccc1)C1CCN(S(=O)(=O)c2ccc3c(c2)CCCN3C(=O)C2CCC2)CC1	inconclusive: 2.1% [signal inhibitor]	–
COC(=O)c1[nH]c2cc(C)ccc2c1NC(=O)CN1CCc2cc(OC)c(OC)cc2C1	inconclusive: 5.1% [signal inhibitor]	–
CC1(C)CC(NC(=O)c2coc(=O)c(Br)c2)CC(C)(C)N1	inconclusive: 7.47% [signal activator]	–
CCN(CC)CCNC(=O)c1cc2c(-c3ccc(Cl)cc3)nn(C)c2s1	inconclusive: 14.1%	–
Cc1ccc(CNC(=O)CCCCCn2c(=O)c3sccc3n(CC(=O)C(C)(C)C)c2=O)cc1	inactive	–
Cc1ccc2c(CN3CCN(c4ccc(Cl)cc4)CC3)cc(=O)oc2c1	inconclusive: 0.274% [signal inhibitor]	–
CCc1nc2c(cnn2-c2ccc(Cl)cc2)c(=O)n1-c1ccc2c(c1)OCCO2	inactive	–
Cc1ccsc1C(=O)OCC(=O)N1CCOCC1	inactive	–
COc1ccc(NC(=O)CSc2nncn3c2cc2occc23)c(OC)c1	inactive	–
COc1ccc(-n2nnc(-c3nc(-c4ccc5c(c4)OCO5)no3)c2C)cc1Cl	inactive	–
CCOc1cc(C#N)c(NC(=O)c2ccc(OC)c(S(=O)(=O)N3CCCCC3)c2)cc1OCC	inactive	–
CC(=O)c1ccc(NC(=O)c2cnc(N3CCCC3)nc2C)cc1	inconclusive: 0.321% [signal activator]	–
COc1ccc(NC(=O)Cn2c(=O)n(Cc3ccco3)c(=O)c3sc4ccccc4c32)cc1OC	inactive	–
Cc1cc(C(=O)CSc2nnnn2C)c(C)n1-c1ccc2c(c1)OCCO2	inconclusive: 4.4% [signal inhibitor]	–
CCCCNC(=O)CSc1nc2ccc(N3CCOCC3)cc2c(=O)n1CCc1ccccc1	inactive	–

SMILES	IkBa stabilization activation	Potency
O=C(C1CCCCC1)N(Cc1cccnc1)c1nc2ccc(Cl)cc2s1	inconclusive: 9.06% [signal inhibitor]	–
COc1ccc(NCc2nnc(SCC(=O)Nc3cc(C(F)(F)F)ccc3Cl)o2)cc1	inactive	–
Cc1ccc2c(CNCCc3ccco3)c(C(=O)O)n(Cc3ccc(F)cc3)c2c1	inactive	–
CCOc1ccc(CN(CCc2ccc3c(c2)OCO3)Cc2cc(OC)cc(OC)c2)cc1	inconclusive: 2.66% [signal inhibitor]	–
COc1ccc2nc(SCC(=O)N(C)C3CCCCC3)c(C#N)cc2c1	–	inconclusive: 15.8 µM [signal inhibitor, partial curve]
Cc1cc(=O)[nH]c2nnc(SCc3cccc(C(F)(F)F)c3)n12	inconclusive: 0.184% [signal inhibitor]	–
Cn1c(C(=O)NCCCN2CCCC2=O)cc2c(=O)n3ccccc3nc21	inactive	–
COc1ccc(C(=O)Nc2ccc(-c3nc4cc(C)ccc4o3)c(O)c2)cc1	inconclusive: 8.91% [signal inhibitor]	–
Cc1nc(N2CCOCC2)c2c(C(=O)N3CCN(c4cccc(C(F)(F)F)c4)CC3)c(C)oc2n1	inconclusive: 4.84% [signal inhibitor]	–
Cc1cccc2nc(-c3ccc(Cl)s3)c(Nc3ccc4c(c3)OCCO4)n12	inconclusive: 11.3% [signal inhibitor]	–
COc1ccccc1N1CCN(c2ncc3c(n2)CCN(Cc2ccccc2C)C3)CC1	inconclusive: 1.41% [signal inhibitor]	–
Cc1ccc(C)c(NC(=O)CSc2cn(CC(=O)N3CCCCC3)c3ccccc23)c1	inactive	–
COc1ccc(OC(=O)c2cc(-c3ccc4c(c3)OCCO4)on2)cc1	inactive	–
Cn1c(SCc2nc3ccccc3s2)nnc1-c1cccs1	–	inconclusive: 25.1 µM [signal inhibitor, partial curve]
CCOC(=O)c1ccc(NC(=O)CCc2c(C)nc3cc(-c4ccc(OC)cc4OC)nn3c2C)cc1	–	inconclusive: 12.6 µM [signal inhibitor, partial curve]
CC(C)Oc1ccc(C(=O)N2CCC(c3nc4ccccc4s3)CC2)cc1	inconclusive: 2.61% [signal inhibitor]	–
Cc1ccc(SCCNC(=O)CN(c2cccc(C)c2C)S(C)(=O)=O)cc1	inconclusive: 4.02% [signal inhibitor]	–
Cc1cc(Oc2ccc(-c3ccccc3)cc2)n2ncnc2n1	–	inconclusive: 15.8 µM [signal inhibitor, partial curve]
CNc1ncnc2ccc(-c3ccccc3C#N)cc12	inactive: 1.72% [at 11.4 µM, scaled: untreated 0%, proteasome inhibitor 100%]	–
CC(C)(C)c1cc(C(c2cccnc2)N2CCN(CCO)CC2)cc(C(C)(C)C)c1O (configuration not stated)	–	inconclusive: 3.98 µM [signal inhibitor, partial curve]
CCOC(=O)c1c(C)oc2nc(C)nc(NCCc3ccc(OCC)cc3)c12	inconclusive: 0.18% [signal inhibitor]	–
O=C(Nc1ccc(-n2nncc2-c2ccco2)cc1)c1ccc(F)cc1	inconclusive: -0.765% [signal inhibitor]	–
N#CC1=C(N)NC(SCC(=O)Nc2ccccc2)=C(C#N)C12CCCC2	inconclusive: 4.86% [signal inhibitor]	–
O=C(N=c1nc2ccccn2s1)c1ccccc1	inactive	–

SMILES	IkBa stabilization activation	Potency
O=S(=O)(c1ccccc1)N1CCN(c2cc(-c3ccccc3)nc3ncnn23)CC1	–	inconclusive: 31.6 µM [rising, partial curve]
CCC(C)NC(=O)Cn1c(=O)n(-c2cc(OC)cc(OC)c2)c(=O)c2ccccc21 (configuration not stated)	inconclusive: 3.27% [signal inhibitor]	–
Cc1ccc(-n2ncc(C(=O)NCc3cccs3)c2C2CCN(C(=O)OC(C)(C)C)CC2)cc1C	inconclusive: -4.1% [signal inhibitor]	–
O=Cc1ccc(Cl)cc1	inactive	–
Cc1ccc2[nH]c(CSc3nnc(NC(=O)COc4ccccc4F)s3)cc(=O)c2c1	inactive	–
Cc1c(C(=O)OCCOc2ccccc2)[nH]c2c1C(=O)CCC2	inconclusive: 8.63% [signal inhibitor]	–
Cc1cccc(Cn2c(CNS(=O)(=O)c3ccc(Cl)s3)nc3cccnc32)c1	inconclusive: 3.61% [signal inhibitor]	–
Cc1ccc(C)c(OCCOCCn2c(-c3ccc(Br)cc3)nc3ccccc3c2=O)c1C	inactive	–
Cn1c(=O)oc2cc(S(=O)(=O)NCCC(=O)Nc3ccc(F)c(Cl)c3)ccc21	inconclusive: 7.79% [signal inhibitor]	–
Cn1c(NCc2cccc(Br)c2)nc2ccccc21	inactive	–
CCOC(=O)N1CCC(Nc2c(Nc3ccc(C)c(C)c3)c(=O)c2=O)CC1	inactive	–
CS(=O)(=O)c1ncc(N(Cc2ccccc2)Cc2ccco2)c(C(=O)Nc2cccc(C(F)(F)F)c2)n1	inconclusive: 1.75% [signal inhibitor]	–
CCOC(=O)c1c(NC(=O)c2cc(-c3ccccc3)on2)sc2c1CCCC2	–	inconclusive: 10 µM [signal inhibitor]
O=C(NCCc1ccc(Cl)cc1)c1ccc2nc(Cc3ccccc3)oc2c1	inconclusive: 1.38% [signal inhibitor]	–
COC(=O)c1c(C)nc(C)c2c(=O)oc3ccccc3c12	inactive	–
Cc1cc(C)c(NC(=O)CSc2nc(=O)n(Cc3ccco3)c3c2CCC3)c(C)c1	inconclusive: 5.93% [signal inhibitor]	–
COc1cccc(-c2nc(SCc3cc(=O)c4cc(Cl)ccc4[nH]3)n[nH]2)c1	inconclusive: 1.45% [signal inhibitor]	–
CCCCC[C@H](O)/C=C\[C@H]1[C@H](C/C=C\CCCC(=O)O)[C@@H](O)C[C@H]1O (tested in a mixture with another compound)	inactive	–
Cc1ccc(S(=O)(=O)Cn2nnnc2C(c2ccccn2)N2CCN(c3ccccc3)CC2)cc1 (configuration not stated)	–	inconclusive: 31.6 µM [rising, partial curve]
CCOc1ccc(-c2nonc2NC(=O)c2ccccc2C)cc1	inactive	–
COc1cccc(-n2nnnc2SCC(=O)N2CCCc3ccccc32)c1	inconclusive: 12% [signal inhibitor]	–
Cc1cc2c(cc1S(=O)(=O)Nc1cccc(C(F)(F)F)c1)OCCN2C	–	inconclusive: 7.94 µM [signal inhibitor, full curve]
CC(C)Oc1ccc(CNC(=O)Cc2ccc(NC(=O)N3CCSc4ncccc43)cc2)cc1	inconclusive: -1.07% [signal inhibitor]	–
Cc1ccc2c(c1)c(=O)c(S(=O)(=O)c1ccc(F)cc1)cn2CC(=O)Nc1ccc2c(c1)OCO2	inconclusive: 0.722% [signal inhibitor]	–

Reference: PubChem BioAssay AID445 (National Center for Advancing Translational Sciences (NCATS), 2006)
